The source of these data is PMC6212790.

The other results are listed elsewhere or left out. At the low end of the ranking the order means little.

For this experiment, the target named is T1, GST-Rok (full length) (UniProt O34857).
T1 sequence: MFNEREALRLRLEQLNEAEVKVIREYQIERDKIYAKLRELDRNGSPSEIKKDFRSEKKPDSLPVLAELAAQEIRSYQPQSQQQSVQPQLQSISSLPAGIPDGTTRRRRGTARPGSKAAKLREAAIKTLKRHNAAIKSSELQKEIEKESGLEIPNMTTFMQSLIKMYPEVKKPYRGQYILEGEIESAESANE
In words: protein binding microarray.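 Also: rank score from −0.5 (least bound) to 0.5 (best bound).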 The note with it: Rok is a gene silencer of Bacillus subtilis; high values mean tight binding; most listed sequences are background and not binding sites; double strand, one strand shown.
Consider CGGGCCAG, for which the binding signal was -0.277 E-score.
For CGCGCCGC the value was -0.298 E-score; for AGGGAGTG, -0.279 E-score; for CCAATTAA, -0.0711 E-score.
As for ATTGCTAC, the figure is 0.247 E-score; as for AATGGTTA, 0.128 E-score.
GCTATTAA returned a binding signal of 0.189 E-score.
For CATAAAAG the value was 0.102 E-score; for AGTTTTAG, 0.256 E-score; for GATCGCGA, 0.177 E-score.
As for CCAACAGA, the figure is -0.0602 E-score.
For the sequence CTCACCTC, the binding signal was -0.154 E-score.
As for CCTGTGAA, the figure is -0.197 E-score.
As for CCTGTGGC, the figure is -0.315 E-score.
For CGTGTCCA the value was -0.186 E-score.
On to AACACCAT, for which the binding signal stood at 0.0536 E-score.
For ACGACCTC the value was -0.11 E-score; for ACTCATTC, 0.043 E-score.
Consider TCATAACA, for which the binding signal turned out to be 0.0898 E-score.
In turn, GAATCATC showed a binding signal of -0.114 E-score.
For GGAAAAGA the value was -0.0377 E-score; for CAATGGCC, -0.0754 E-score; for AGAAACGG, 0.0479 E-score.
As for GCTCTTCA, the figure is -0.032 E-score.
As for CTAAAGAG, the figure is 0.00604 E-score.
Consider ATTTGCGC, for which the binding signal amounted to 0.0911 E-score.
As for GGTGGATA, the figure is -0.012 E-score.
As for ATTGGGAA, the figure is -0.0874 E-score.
As for CTGCACAA, the figure is 0.159 E-score; as for CTGCGACA, -0.167 E-score.
Regarding TGAACGCA, the binding signal was -0.112 E-score.
For AGGACCGG the value was -0.183 E-score; for GCGACAAC, -0.145 E-score; for TCCGCGAA, 0.0264 E-score.
As for GCCTATCA, the figure is -0.0333 E-score; as for ACGGAGCA, -0.0635 E-score.
For CCGGGGGC the value was -0.425 E-score.
CGAACGAG returned a binding signal of 0.00802 E-score.
As for ATTCTACC, the figure is 0.442 E-score.
CAAGATAG: the binding signal was 0.221 E-score.
With AACATGGT, the binding signal amounted to 0.12 E-score.
As for GGACTTAC, the figure is 0.0153 E-score; as for AGGGTCGA, -0.177 E-score.
For AAGGTACT the value was 0.183 E-score; for ATTTGGTG, 0.0849 E-score; for ACTGAAAG, 0.0652 E-score.
In the case of ACCGCAGT, the binding signal was found to be 0.0335 E-score.
As for AATCAGAG, the figure is -0.104 E-score; as for AGATTGAG, 0.172 E-score.
As for CGAGCTGC, the figure is -0.23 E-score; as for CTCATCAA, 0.00689 E-score.
As for GCTCACCA, the figure is -0.175 E-score.
Regarding AGTGTACG, the binding signal was -0.00494 E-score.
For AAAGTTAT the value was 0.271 E-score; for AATAAACC, -0.00939 E-score.
As for GCGACCGC, the binding signal was -0.258 E-score.
As for GCTGTTGA, the figure is 0.00859 E-score.
As for AAGTTGCC, the figure is -0.0279 E-score.
As for AGTCACAT, the figure is 0.195 E-score.
Consider AGATATCA, for which the binding signal is 0.127 E-score.
Sequence CCCCGGCG showed a binding signal of -0.361 E-score.
TACTATCA had a binding signal of 0.35 E-score.
On to GCCCTTAC, for which the binding signal was -0.0744 E-score.
For the sequence AGGCTGAC, the binding signal was -0.124 E-score.
As for CCCGTCAC, the figure is -0.261 E-score; as for CACCGGTA, 0.056 E-score.
As for ACGTCGTG, the figure is 0.0249 E-score; as for GAACAAAC, 0.0908 E-score.
Sequence CATCCATG came in with a binding signal of 0.00106 E-score.
As for AACTGGGC, the figure is -0.224 E-score; as for AAGAACCC, -0.203 E-score; as for GACCTTCC, -0.391 E-score.
For CACTAGCG the value was -0.204 E-score; for ACTCGGGC, -0.244 E-score; for ATAAGGAT, 0.109 E-score.
For CCTTCATC the value was -0.103 E-score; for CGAGAAAG, -0.157 E-score.
In the case of CATGATGC, the binding signal is 0.112 E-score.
As for GTAATCAC, the figure is -0.106 E-score; as for GTCTTTGA, -0.162 E-score.
With CACTCTTC, the binding signal is -0.167 E-score.
As for GTGGGCAA, the figure is -0.12 E-score.
As for ACCCGACT, the figure is -0.116 E-score; as for TGCAATAA, 0.0325 E-score; as for ACGGAACT, 0.182 E-score.
For CGCTATCC the value was 0.0105 E-score; for CAACAGAA, -0.146 E-score; for ACATCTCA, 0.0868 E-score.
In the case of CACAATAG, the binding signal was 0.312 E-score.
As for CACGCCCC, the figure is -0.34 E-score; as for CAGAGTGG, -0.106 E-score.
For CGGACACG the value was -0.142 E-score; for GTAACAGA, 0.12 E-score; for CTACATAA, 0.267 E-score.
For AAGTAGCT the value was 0.264 E-score; for CATGCACC, -0.113 E-score.
The sequence TATTCGCA yielded a binding signal of 0.195 E-score.
For AGTGACAT the value was 0.101 E-score; for TACTAAAA, 0.434 E-score.
As for AGCCCCGC, the figure is -0.338 E-score; as for CATCTTCA, 0.0379 E-score.
Consider AGCGAGAA, for which the binding signal was 0.0389 E-score.
As for AGCTGTGC, the figure is -0.176 E-score.
In turn, CTGGTGAC yielded a binding signal of -0.165 E-score.
As for CCATCGAA, the figure is -0.0481 E-score.
For ACTTTAAG the value was -0.108 E-score; for ACTCTTGC, 0.112 E-score.
For CAGGAAAG the value was -0.131 E-score; for ATTGAGTA, 0.241 E-score; for ATTCCTAG, 0.0654 E-score.
In turn, ACAGCTCA displayed a binding signal of -0.0199 E-score.
As for AAGAGTGT, the figure is 0.0141 E-score; as for GATTTTCA, -0.0835 E-score; as for CAGCGCAC, -0.0964 E-score.
As for GTCCGTCA, the figure is -0.0558 E-score.
For ACCGATTG the value was -0.0493 E-score.
The sequence ACTCAAGT showed a binding signal of 0.0198 E-score.
CCAGAAGG returned a binding signal of -0.262 E-score.
For CTGGCAGA the value was -0.0653 E-score; for AGACGGTG, -0.0582 E-score; for AGAGCACG, -0.225 E-score.
As for AGCAACAG, the figure is 0.0925 E-score; as for GAGTTATA, 0.222 E-score; as for TCTAGAGA, -0.0342 E-score.
For ATATCTAC the value was 0.393 E-score; for CGGCCGTC, -0.256 E-score; for AGCGGAAG, -0.039 E-score.
AATACAGA returned a binding signal of 0.0991 E-score.
In turn, AACATACA yielded a binding signal of 0.355 E-score.
For AGAGTAAG the value was 0.19 E-score; for CGACAACA, 0.0732 E-score; for ACGTCACA, -0.0872 E-score.
As for ACTGTATA, the figure is 0.314 E-score; as for CCTCTAAG, -0.231 E-score; as for TAAGAGTA, 0.209 E-score.
For GAAAGGCA the value was -0.2 E-score; for ACAACAAC, -0.0116 E-score.
Sequence CGACCGTA returned a binding signal of -0.0287 E-score.
As for AAACGGGC, the figure is -0.108 E-score; as for CTCGATCA, -0.142 E-score; as for AGCCTAAG, -0.0976 E-score.
For CGGTCATA the value was 0.117 E-score.
As for CCGCAACC, the figure is -0.0987 E-score.
AAAATAGG returned a binding signal of 0.158 E-score.
As for GGGGGTGA, the figure is -0.338 E-score; as for AAATCGAC, 0.0627 E-score.
For AAAAACGC the value was 0.0552 E-score.
For ACAGCGCG the value was -0.0229 E-score.
For the sequence TGCGACCA, the binding signal is -0.0775 E-score.
In the case of AGTGAGAA, the binding signal was 0.0651 E-score.
Turning to AGATATTG, the binding signal is 0.196 E-score.
As for GGGTAATA, the figure is 0.234 E-score.
Sequence ATATCCAC had a binding signal of 0.161 E-score.
For ATTTCTTG the value was -0.159 E-score; for CGATCGCA, -0.0648 E-score.
In turn, ACTCCGCG came in with a binding signal of -0.031 E-score.
For CTGGCGAC the value was -0.187 E-score; for AGTGGAGC, -0.164 E-score.
As for CCAAACAA, the figure is -0.185 E-score; as for TTCTAAAA, 0.0214 E-score; as for ACTCCCGG, -0.257 E-score.
For AATCTGCA the value was -0.0122 E-score.
AGATCGCA came in with a binding signal of -0.164 E-score.
For AACAGCAC the value was -0.322 E-score; for AGCTACTC, 0.0629 E-score.
In turn, GAATTTCA had a binding signal of 0.0434 E-score.
For CTGCGGCC the value was -0.43 E-score.
AGGCAGTA returned a binding signal of 0.206 E-score.
For AAGTACGT the value was 0.254 E-score; for ACGTCTAC, -0.0183 E-score; for CCGACGGA, -0.223 E-score.
As for AAGCAATA, the figure is 0.178 E-score.
